pIC50: −log10 of the molar value. The IC50 comes from the fitted curve, where viability falls to half of the control; a limit (>, <) means that the fit lies beyond the doses tested. AUC is the area under the same curve over the 256-fold range up to the top dose, as a fraction; values near 1 show little effect. For some assays here: An inferred top dose is not printed in the source and was worked back from the curve model. For some assays here: An entry number marks a drug with two screens in the source, which often give different values.
What was measured:
Experiment in all cases: Viability of human cancer cell lines after 72 h of drug (GDSC screen)
UNC0638 = compound: COc1cc2c(NC3CCN(C(C)C)CC3)nc(C3CCCCC3)nc2cc1OCCCN1CCCC1 [UNC0638]
Experimental: (§1)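 Human cancer cell lines in 384-well plates, medium with 10% serum, drug for 72 h over a 256-fold dose range (nine 2-fold or five 4-fold steps up to the top dose). Adherent lines were fixed and stained with the nucleic acid dye Syto60, suspension lines read with resazurin; signal relative to control wells, capped at 0 and 100%. One two-parameter sigmoid per drug and line, fitted in a mixed model over all curves with the slope shared within a line.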

PI-103 = compound: Oc1cccc(-c2nc(N3CCOCC3)c3oc4ncccc4c3n2)c1 [PI-103]; details: top dose 10.24 µM
Experimental: as §1

GSK690693 = compound: CCn1c(-c2nonc2N)nc2c(C#CC(C)(C)O)ncc(OC[C@H]3CCCNC3)c21 [GSK690693]; details: top dose 10.24 µM; top dose inferred
Experimental: as §1

SB-505124 = compound: Cc1cccc(-c2[nH]c(C(C)(C)C)nc2-c2ccc3c(c2)OCO3)n1 [SB-505124]; details: top dose 10 µM; top dose inferred
Experimental: as §1

BX-795 = compound: O=C(NCCCNc1nc(Nc2cccc(NC(=O)N3CCCC3)c2)ncc1I)c1cccs1 [BX-795]; details: top dose 5 µM; top dose inferred
Experimental: as §1

Tretinoin = compound: CC1=C(/C=C/C(C)=C/C=C/C(C)=C/C(=O)O)C(C)(C)CCC1 [Tretinoin]; details: top dose 10 µM; top dose inferred
Experimental: as §1

[1] = top dose 20 µM, screen: GDSC drug entry 1236, top dose inferred
[2] = top dose 40 µM, screen: GDSC drug entry 245

| Cell Line | AUC (UNC0638; [1]) | pIC50 (UNC0638; [1]) | AUC (UNC0638; [2]) | pIC50 (UNC0638; [2]) | AUC (PI-103) | pIC50 (PI-103) | AUC (GSK690693) | pIC50 (GSK690693) | AUC (SB-505124) | pIC50 (SB-505124) | AUC (BX-795) | pIC50 (BX-795) | AUC (Tretinoin) | pIC50 (Tretinoin) |
| --- | --- | --- | --- | --- | --- | --- | --- | --- | --- | --- | --- | --- | --- | --- |
| OVTOKO (ovary, adherent) | 0.758 | 5.06 | 0.752 | 4.78 | 0.646 | 5.74 | 0.961 | < 4.99 | 0.94 | < 5.00 | 0.744 | 5.71 | 0.946 | < 5.00 |
| P12-ICHIKAWA (T-cell lymphoblastic leukaemia, suspension) | 0.851 | 4.99 | 0.6 | 5.36 | 0.639 | 5.85 | 0.93 | < 4.99 | 0.986 | < 5.00 | 0.89 | 5.46 | 0.963 | < 5.00 |
| PA-TU-8902 (pancreas, adherent) | 0.979 | < 4.70 | 0.844 | 4.44 | 0.381 | 6.55 | 0.973 | < 4.99 | 0.933 | < 5.00 | 0.881 | < 5.30 | 0.981 | < 5.00 |
| PANC-02-03 (pancreas, adherent) | 0.808 | 4.89 | 0.659 | 5.12 | 0.983 | < 4.99 | 0.973 | < 4.99 | 0.971 | < 5.00 | 0.891 | < 5.30 | 0.956 | < 5.00 |
| PANC-03-27 (pancreas, adherent) | 0.812 | 5.00 | 0.658 | 5.18 | 0.852 | 5.15 | 0.987 | < 4.99 | 0.987 | < 5.00 | 0.877 | 5.35 | 0.989 | < 5.00 |
| PANC-04-03 (pancreas, adherent) | 0.81 | 4.70 | 0.908 | < 4.40 | 0.706 | 5.45 | 0.976 | < 4.99 | 0.974 | < 5.00 | 0.968 | < 5.30 | 0.976 | < 5.00 |
| PC-3 [JPC-3] (lung adenocarcinoma, adherent) | 0.918 | < 4.70 | 0.956 | < 4.40 | 0.658 | 5.69 | 0.956 | < 4.99 | 0.972 | < 5.00 | 0.967 | < 5.30 | 0.971 | < 5.00 |
| PC-14 (lung adenocarcinoma, adherent) | 0.839 | 4.94 | 0.656 | 5.19 | 0.757 | 5.50 | 0.922 | < 4.99 | 0.983 | < 5.00 | 0.851 | 5.49 | 0.98 | < 5.00 |
| PCI-4B (head and neck, adherent) | 0.823 | 4.96 | 0.654 | 5.19 | 0.419 | 6.41 | 0.891 | < 4.99 | 0.958 | < 5.00 | 0.762 | 5.77 | 0.936 | < 5.00 |
| PCI-15A (head and neck, adherent) | 0.909 | < 4.70 | 0.985 | < 4.40 | 0.621 | 5.86 | 0.926 | < 4.99 | 0.985 | < 5.00 | 0.987 | < 5.30 | 0.969 | < 5.00 |

Reference: the supplement of paper PMC4967469
